Experimental data: the supplement of paper PMC7826260
The list shows a part of the results. Cleavage of a single-stranded DNA pool by Rep nickase domains was read by sequencing for 1 h at 37 °C with 3 µM enzyme; only the middle of the 90-letter strands is printed. Numbers give uncut DNA relative to the enzyme-free pool, as log2; more negative means more cut, near 0 not cut, and no call is made. Counts are relative to all reads; where an enzyme cuts many sequences, the uncut ones exceed 0.

Experiments:
Test in all cases: uncleaved DNA left, log2 of reads against the no-enzyme library (log2 ratio); higher = less cleavage (more negative = more Rep cleavage of the k-mer); sequences stand for … in CTCGTCCG…ACCGGAGA
[1] = tested on: T1, Rep nickase domain of Muscovy duck circovirus
T1 sequence (Rep 1-111, printed without the tag): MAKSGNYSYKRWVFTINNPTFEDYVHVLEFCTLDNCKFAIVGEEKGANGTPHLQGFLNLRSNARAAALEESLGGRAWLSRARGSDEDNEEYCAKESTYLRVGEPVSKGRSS
Method: (§1)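 A pool of 90-nt single-stranded DNAs with seven random bases just before the constant AC of the nick site (name = the seven bases) was cut by 3 µM recombinant His6-SUMO-tagged Rep nickase domain (300 nM DNA, 50 mM HEPES pH 8.0, 50 mM NaCl, 1 mM MnCl2, 1 h, 37 °C, three replicates). Uncut DNA was amplified and sequenced.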

[2] = tested on: T2, Rep nickase domain of banana bunchy top virus
T2 sequence (Rep 1-94, printed without the tag): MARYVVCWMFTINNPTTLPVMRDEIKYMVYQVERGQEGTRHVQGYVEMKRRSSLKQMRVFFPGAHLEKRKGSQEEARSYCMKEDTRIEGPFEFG
Method: as §1

[3] = tested on: T3, Rep nickase domain of cabbage leaf curl virus
T3 sequence (Rep 1-116, printed without the tag): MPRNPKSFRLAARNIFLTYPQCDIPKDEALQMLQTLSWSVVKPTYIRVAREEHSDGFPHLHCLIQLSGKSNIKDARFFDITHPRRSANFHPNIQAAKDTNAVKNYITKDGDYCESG
Method: as §1

[4] = tested on: T4, Rep nickase domain of chickpea chlorotic dwarf virus
T4 sequence (Rep 1-124, printed without the tag): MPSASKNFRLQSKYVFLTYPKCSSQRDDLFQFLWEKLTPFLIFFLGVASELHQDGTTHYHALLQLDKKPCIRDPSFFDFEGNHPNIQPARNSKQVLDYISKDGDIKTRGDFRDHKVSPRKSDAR
Method: as §1

[5] = tested on: T5, Rep nickase domain of faba bean necrotic yellows virus
T5 sequence (Rep 1-98, printed without the tag): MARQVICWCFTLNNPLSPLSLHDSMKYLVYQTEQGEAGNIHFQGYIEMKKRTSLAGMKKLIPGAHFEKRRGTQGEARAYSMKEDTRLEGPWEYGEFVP
Method: as §1

[6] = tested on: T6, Rep nickase domain of maize striate mosaic virus
T6 sequence (Rep 1-117, printed without the tag): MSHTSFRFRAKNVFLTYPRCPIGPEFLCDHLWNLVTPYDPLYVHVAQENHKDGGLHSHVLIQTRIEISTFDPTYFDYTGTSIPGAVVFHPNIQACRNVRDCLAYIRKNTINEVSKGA
Method: as §1

[7] = tested on: T7, Rep nickase domain of porcine circovirus 2
T7 sequence (Rep 2-116, printed without the tag): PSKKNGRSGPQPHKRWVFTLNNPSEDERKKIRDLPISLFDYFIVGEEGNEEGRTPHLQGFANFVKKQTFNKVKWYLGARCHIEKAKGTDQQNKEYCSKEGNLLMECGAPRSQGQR
Method: as §1

[8] = tested on: T8, Rep nickase domain of tomato golden mosaic virus
T8 sequence (Rep 1-124, printed without the tag): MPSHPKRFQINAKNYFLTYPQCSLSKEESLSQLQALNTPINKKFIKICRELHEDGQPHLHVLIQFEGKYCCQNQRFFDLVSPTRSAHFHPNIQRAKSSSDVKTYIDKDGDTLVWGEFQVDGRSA
Method: as §1

[9] = tested on: T9, Rep nickase domain of tomato yellow leaf curl virus
T9 sequence (Rep 1-136, printed without the tag): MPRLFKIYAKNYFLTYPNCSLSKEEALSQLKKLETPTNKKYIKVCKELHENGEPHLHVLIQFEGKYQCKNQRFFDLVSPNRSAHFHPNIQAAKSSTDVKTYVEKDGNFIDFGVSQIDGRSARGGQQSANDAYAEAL
Method: as §1

[10] = tested on: T10, Rep nickase domain of wheat dwarf virus
T10 sequence (Rep 1-137, printed without the tag): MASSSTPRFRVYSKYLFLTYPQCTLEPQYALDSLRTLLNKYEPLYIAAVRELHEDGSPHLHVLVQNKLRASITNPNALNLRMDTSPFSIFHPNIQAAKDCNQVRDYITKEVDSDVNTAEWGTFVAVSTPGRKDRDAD
Method: as §1

Sequence	uncleaved DNA left (log2) [1]	uncleaved DNA left (log2) [2]	uncleaved DNA left (log2) [3]	uncleaved DNA left (log2) [4]	uncleaved DNA left (log2) [5]	uncleaved DNA left (log2) [6]	uncleaved DNA left (log2) [7]	uncleaved DNA left (log2) [8]	uncleaved DNA left (log2) [9]	uncleaved DNA left (log2) [10]
TCCACCG	-0.116	-0.152	-0.84	-0.843	-0.136	-0.919	0.00321	-0.121	-0.154	-0.189
TCAACAT	0.0814	0.0688	0.489	0.0652	0.0586	0.965	0.17	0.0172	0.0143	0.0784
AGTATTC	0.043	0.0736	0.198	0.313	0.0717	-0.316	-0.1	0.049	0.0377	-0.00695
CTGAGTA	0.0575	0.00288	-0.225	-0.766	0.0172	-0.74	-0.267	-0.0281	-0.0511	-0.0416
CCTCGTG	0.157	0.0448	-0.67	-0.912	0.0828	-0.943	0.198	0.0797	0.0469	-0.239
CATTGCG	-0.201	-0.0338	0.594	1.45	0.107	2.02	0.205	0.00394	0.16	-0.0259
AGGGTGT	-0.0233	0.0493	0.177	1.12	-0.0487	1.52	0.0914	0.171	-0.027	0.0359
CAAGGCT	-0.0702	0.079	-0.101	-0.323	-0.0149	0.028	0.0786	-0.0353	-0.00904	0.129
GGGCCGC	-0.0398	0.177	0.746	1.73	-0.0776	2.05	0.119	0.0147	0.0289	0.0257
ATTCCTC	-0.0375	0.0885	0.0842	0.00683	-0.0234	-0.208	-1.04	-0.0186	-0.00753	0.106
TGTGTTG	-0.0101	-0.134	-0.298	-0.455	0.0766	-0.783	0.136	0.00796	-0.0553	-0.132
CGAGGCA	-0.000995	0.0825	0.0203	0.273	0.0278	-0.0896	-0.298	0.121	0.0466	0.0433
GCGTTTA	-0.0685	-0.0616	-0.0784	-0.0584	-0.075	0.17	-0.274	-0.075	-0.0441	-0.0241
TCGCGAA	-0.107	0.0266	-0.492	-0.552	-0.0118	-1.14	-0.0807	-0.0613	-0.0896	-0.109
ATGGGTT	0.0486	-0.102	0.173	1.02	0.0355	1.63	0.153	0.14	-0.0339	0.0308
ATGTGCA	0.0951	0.0272	-0.478	-0.961	-0.0152	-1.19	-0.218	-0.00616	0.139	0.031
CTTTTTA	-0.178	-0.0687	-0.0942	-1.7	-0.00246	-0.612	-0.433	0.0411	0.115	-0.166
GACTCAA	0.016	0.123	0.223	0.588	0.143	0.737	-0.361	0.091	0.0465	0.0738
GTTTAAG	-0.0114	-0.0425	-0.288	-0.37	-0.0862	-0.886	0.0807	0.0487	0.0414	-0.0634
TCTCCTA	-0.111	-0.0301	0.0194	-0.508	0.0156	0.238	-0.127	-0.0778	-0.0184	-0.026
CTCAGGA	-0.0103	-0.0516	0.0624	0.667	-0.0547	0.682	-0.0176	-0.0833	-0.172	-0.137
GACGCTG	0.0114	0.0194	0.238	0.838	0.0645	1.44	0.165	0.0263	-0.12	-0.0262
TCGTAGA	0.0579	0.00944	0.186	0.181	0.102	-0.249	0.0836	-0.0016	0.00758	0.0575
AGCTGGA	0.147	0.134	0.393	1.47	0.158	1.46	0.153	0.198	0.0764	0.189
GACACAT	-0.0643	-0.0405	0.597	1.03	-0.104	1.69	0.0366	-0.15	-0.0135	0.0454
AATGCGA	0.0603	0.0399	-0.62	0.71	-0.0144	-0.354	0.12	-0.159	-0.031	-0.128
GAGTTCG	0.0606	0.0239	-0.783	-0.201	0.0074	-0.63	-0.0662	-0.0914	0.0389	-0.0638
ATTGTCA	-0.0286	0.0588	-0.302	-1.1	0.0776	-1.02	-0.122	-0.0848	0.0628	0.0278
TCGCAGT	0.119	-0.0551	0.0492	-0.308	0.171	-0.745	-0.0578	-0.00221	0.159	-0.0177
ATCTCTA	-0.0405	0.0338	-0.168	-0.897	0.11	-0.184	-0.191	0.112	0.00577	0.0144
